Out of some 270,000 compounds screened, about 620 (0.23%) were called active. This list was built around the results that the source calls inconclusive (neither active nor inactive); the mix of calls is not that of the screen. Calls come from the whole dose curve; as a rule, active = well fitted inhibition curve with a large enough effect in the polarisation, with a control signal flat (not every such curve was filed as active); inconclusive = small, poorly fitted or top-dose-only effect, or effect the other way, or a change in a side signal; inactive = no such curve, though single readings can be large or run the other way; the % refers to the polarisation. Potencies of inconclusive entries are doubtful fits and often do not repeat. “Side channel” marks fits to a control or component signal instead of the main read-out.
Biological target: Menin (Homo sapiens) (UniProt O00255)
Experiment: qHTS Assay for Inhibitors Targeting the Menin-MLL Interaction in MLL Related Leukemias: Competition With Texas Red Labeled MLL-derived Mutant Peptide
Details: fluorescence polarization; series mostly up to 61.6 µM
Potency is the fitted concentration of half-maximal effect; tags give direction and shape of the fitted curve or compound fluorescence and quenching.

UniProt O00255, sequence (O00255 whole entry, looked up): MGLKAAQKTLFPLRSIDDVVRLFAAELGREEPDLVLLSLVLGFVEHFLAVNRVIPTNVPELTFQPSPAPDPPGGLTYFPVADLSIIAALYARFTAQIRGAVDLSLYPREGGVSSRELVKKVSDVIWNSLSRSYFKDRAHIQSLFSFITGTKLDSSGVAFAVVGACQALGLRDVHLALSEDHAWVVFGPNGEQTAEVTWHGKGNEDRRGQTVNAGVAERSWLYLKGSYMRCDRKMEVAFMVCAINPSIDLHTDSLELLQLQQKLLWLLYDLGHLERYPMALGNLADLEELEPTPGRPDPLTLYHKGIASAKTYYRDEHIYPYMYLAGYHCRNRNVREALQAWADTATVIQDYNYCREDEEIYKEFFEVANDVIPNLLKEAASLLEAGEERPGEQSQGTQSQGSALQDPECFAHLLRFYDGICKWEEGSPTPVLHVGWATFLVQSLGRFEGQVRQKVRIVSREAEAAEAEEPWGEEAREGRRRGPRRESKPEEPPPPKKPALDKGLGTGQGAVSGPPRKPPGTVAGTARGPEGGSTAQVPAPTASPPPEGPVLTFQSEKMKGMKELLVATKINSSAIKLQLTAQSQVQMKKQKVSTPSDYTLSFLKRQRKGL

Potency, inconclusive:
COc1ccc(/C=C(/NC(=O)c2ccco2)C(=O)Nc2ccc(C(C)=O)cc2)cc1 39.8 µM [inhibitor, single point], CC(C)n1c(=N)c(C(=O)NCCc2ccccc2)cc2c(=O)n3ccccc3nc21 5.01 µM [inhibitor, full curve], Cc1ccc(C(=O)COc2nc(C)nc3ccccc23)cc1 39.8 µM [fluorescent, side channel, single point], COc1ccc(-n2ncc3c(=O)n(CC(=O)Nc4ccc5c(c4)OCCO5)cnc32)cc1 31.6 µM [fluorescent, side channel, single point], COc1cc(Br)cc(/C=C/c2ccc3cccc(O)c3n2)c1OC 39.8 µM [fluorescent, single point], N#Cc1nc(-c2ccccc2Cl)oc1N1CCN(C(=O)c2ccco2)CC1 39.8 µM [fluorescent, side channel, single point], CCS(=O)CCSc1nc2ccccc2s1 (stereo unspecified) 6.31 µM [inhibitor, partial curve], Oc1ccc(N=Cc2ccc(O)c(O)c2)cc1 28.2 µM [quencher, side channel, single point], COc1cccc(-c2nnc3n2N=C(c2ccc(OC)cc2OC)CS3)c1 3.16 µM [quencher, side channel, single point], O=C(NC(=S)NCc1ccc(F)cc1)c1ccccc1 8.91 µM [fluorescent, side channel, single point], O=C(NC1CCN(c2ncccn2)CC1)c1ccccc1Cl 2.82 µM [inhibitor, partial curve], COC(=O)C1CCN(CC(=O)Nc2ccccc2Sc2ccccc2)CC1 7.94 µM [fluorescent, side channel, full curve, poor fit], CC(C)Nc1oc(-c2cccc3ccccc23)nc1C#N 28.2 µM [quencher, side channel, partial curve], O=C(N/N=C/c1c[nH]c2ccccc12)c1ccc(O)c(O)c1 25.1 µM [quencher, side channel, partial curve], CCCn1c(CCNc2nc(-c3ccc(Cl)c([N+](=O)[O-])c3)cs2)nc2cc(Cl)c(Cl)cc21 10 µM [quencher, side channel, partial curve], CC(=O)c1ccc(NC(=S)Nc2ccn(Cc3ccc(Br)cc3)n2)cc1 8.91 µM [quencher, full curve, poor fit]

Source: PubChem BioAssay AID1768 (National Center for Advancing Translational Sciences (NCATS), 2009)
